Experimental data from PubChem BioAssay AID1745853 (National Center for Advancing Translational Sciences (NCATS), 2022).
The list shows a part of the results. Further columns of the screen follow, without active or inactive calls.

Tests used:
Test in all cases: Primary Screen for Target Class Profiling of Small Molecule Inhibitors of Methyltransferases
[1] = biological target: Glycine N-methyltransferase (Homo sapiens) (UniProt Q14749); conditions: purified enzyme, MTase-Glo SAH luminescence; measured here: GNMT inhibition; at 40 µM; stronger effect = lower value
Outline: (§1)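 Each enzyme was reacted with SAM and its substrate, with compounds tested once at 40 uM; SAH formed was read by MTase-Glo luminescence.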

[2] = biological target: Guanidinoacetate N-methyltransferase (Homo sapiens) (UniProt Q14353); conditions: purified enzyme, MTase-Glo SAH luminescence; measured here: GAMT inhibition; at 40 µM; stronger effect = lower value
Outline: as §1

[3] = biological target: Histamine N-methyltransferase (Homo sapiens) (UniProt P50135); conditions: purified enzyme, MTase-Glo SAH luminescence; measured here: HNMT inhibition; at 40 µM; stronger effect = lower value
Outline: as §1

[4] = biological target: Nicotinamide N-methyltransferase (Homo sapiens) (UniProt P40261); conditions: purified enzyme, MTase-Glo SAH luminescence; measured here: NNMT inhibition; at 40 µM; stronger effect = lower value
Outline: as §1

[5] = biological target: Phenylethanolamine N-methyltransferase (Homo sapiens) (UniProt P11086); conditions: purified enzyme, MTase-Glo SAH luminescence; measured here: PNMT inhibition; at 40 µM; stronger effect = lower value
Outline: as §1
% is set by controls: 0 for no effect and ±100 for the full control effect.

O=c1[nH]c(=O)n([C@H]2CCCO2)cc1F
activity change, negative = inhibition [1]: 1.88% | activity change, negative = inhibition [2]: 2.28% | activity change, negative = inhibition [3]: 8.53% | activity change, negative = inhibition [4]: -9.45% | activity change, negative = inhibition [5]: 0.594%

CC(=O)c1c(C)cc(O)cc1O[C@@H]1O[C@H](CO)[C@@H](O)[C@H](O)[C@H]1O
activity change, negative = inhibition [1]: 5.47% | activity change, negative = inhibition [2]: 5.38% | activity change, negative = inhibition [3]: 4.6% | activity change, negative = inhibition [4]: -8.88% | activity change, negative = inhibition [5]: 4.55%

Cc1cc2c(cc1S(=O)(=O)Nc1ccc(Cl)cc1)n(C)c(=O)n2C
activity change, negative = inhibition [1]: -3.22% | activity change, negative = inhibition [2]: 0% | activity change, negative = inhibition [3]: -6.15% | activity change, negative = inhibition [4]: -10.8% | activity change, negative = inhibition [5]: -6.95%

CN(C)CCN(C)[C@@H]1[C@H](O)[C@H](CO)O[C@@H]1CNCc1cccc(Cl)c1
activity change, negative = inhibition [1]: -4.43% | activity change, negative = inhibition [2]: -6.27% | activity change, negative = inhibition [3]: -3.31% | activity change, negative = inhibition [4]: -8.69% | activity change, negative = inhibition [5]: -1.14%

CN[C@@H](C)[C@H]1[C@H](O)C[C@@]2(C)[C@@H]3CC[C@H]4C(C)(C)[C@@H](NC)CC[C@@]45C[C@@]35CC[C@]12C
activity change, negative = inhibition [1]: 5.45% | activity change, negative = inhibition [2]: 1.18% | activity change, negative = inhibition [3]: -4.36% | activity change, negative = inhibition [4]: -3.43% | activity change, negative = inhibition [5]: 9.95%

Cc1cccc(-c2nc3ccc(C(=O)NC4CCCCCC4)cc3o2)n1
activity change, negative = inhibition [1]: -13.9% | activity change, negative = inhibition [2]: -16.2% | activity change, negative = inhibition [3]: -23.4% | activity change, negative = inhibition [4]: -20.6% | activity change, negative = inhibition [5]: -3.45%

Cn1ccnc1C(=O)N1C[C@@H](COCC2CC2)[C@H](c2ccncc2)C1
activity change, negative = inhibition [1]: 0.035% | activity change, negative = inhibition [2]: 0.919% | activity change, negative = inhibition [3]: 1.86% | activity change, negative = inhibition [4]: 0.25% | activity change, negative = inhibition [5]: -3.23%

CC(C)c1cc2n(n1)CC(C)(C(=O)NC1CCCCC1)N(Cc1cccc(Cl)c1)C2=O (configuration not stated)
activity change, negative = inhibition [1]: 1.04% | activity change, negative = inhibition [2]: 0% | activity change, negative = inhibition [3]: 10.2% | activity change, negative = inhibition [4]: 5.62% | activity change, negative = inhibition [5]: 3.31%

COc1cc(F)c(F)c(Nc2ccc(I)cc2F)c1NS(=O)(=O)C1(CC(O)CO)CC1 (configuration not stated)
activity change, negative = inhibition [1]: -1.5% | activity change, negative = inhibition [3]: 9.22%

CC(C)Cc1nc2nccc(-c3ccsc3)n2n1
activity change, negative = inhibition [1]: -25.4% | activity change, negative = inhibition [2]: -6.67% | activity change, negative = inhibition [3]: -2.99% | activity change, negative = inhibition [4]: -29.4% | activity change, negative = inhibition [5]: -3.39%

O=C(NC1CCN(c2cc(-c3cccs3)[nH]n2)C1)c1cccnc1 (configuration not stated)
activity change, negative = inhibition [1]: -10.7% | activity change, negative = inhibition [2]: -6.5% | activity change, negative = inhibition [3]: -3.12% | activity change, negative = inhibition [4]: -21.5% | activity change, negative = inhibition [5]: -12.4%

O=C(CCC1CCN(S(=O)(=O)c2ccc(F)cc2)CC1)NC1CCCC1
activity change, negative = inhibition [1]: 15.5% | activity change, negative = inhibition [2]: 0.631% | activity change, negative = inhibition [3]: 15.1% | activity change, negative = inhibition [4]: 5.47% | activity change, negative = inhibition [5]: 10.9%

CCOC(=O)c1cc2n(n1)CC(C)(C(=O)NCCC(C)C)N(Cc1ccc(CC)cc1)C2=O (configuration not stated)
activity change, negative = inhibition [1]: 2.16% | activity change, negative = inhibition [2]: 3.97% | activity change, negative = inhibition [3]: -4.03% | activity change, negative = inhibition [4]: 4.48% | activity change, negative = inhibition [5]: -3.17%

COc1ccc(CCN(C)CCc2ccc(OC)c(OC)c2)cc1OC
activity change, negative = inhibition [1]: -3.99% | activity change, negative = inhibition [2]: 11.5% | activity change, negative = inhibition [3]: 7.79% | activity change, negative = inhibition [4]: -5.1% | activity change, negative = inhibition [5]: 3.71%

CCC(C)NC(=O)c1ccc2c(=O)n(CC(C)C)c3nn(Cc4cccc(Cl)c4)c(=O)n3c2c1 (configuration not stated)
activity change, negative = inhibition [1]: 4.01% | activity change, negative = inhibition [2]: 0% | activity change, negative = inhibition [3]: 9.37% | activity change, negative = inhibition [4]: 3.34% | activity change, negative = inhibition [5]: 2.55%

CC1(C(=O)NC2CCCCCC2)Cn2c(cc3occc32)C(=O)N1Cc1ccco1 (configuration not stated)
activity change, negative = inhibition [1]: 0.487% | activity change, negative = inhibition [2]: 1.53% | activity change, negative = inhibition [3]: 0.302% | activity change, negative = inhibition [4]: 0.742% | activity change, negative = inhibition [5]: 1.07%

CC[N+](CC)(CC)CC
activity change, negative = inhibition [1]: 8.68% | activity change, negative = inhibition [2]: 22.2% | activity change, negative = inhibition [3]: 8.86% | activity change, negative = inhibition [4]: 4.73% | activity change, negative = inhibition [5]: 12.1%

NC(=O)c1noc([C@H](CCCC2CCCCC2)CC(=O)NO)n1
activity change, negative = inhibition [1]: 0.099% | activity change, negative = inhibition [2]: 0.115% | activity change, negative = inhibition [3]: 6.33% | activity change, negative = inhibition [4]: -19.6% | activity change, negative = inhibition [5]: -4.6%
